“And” between values parts separate entries of the source, which are not always exact repeats. Identical values can stand only once. The whole screen tested about 50,000 compounds, of which about 800 (1.6%) showed an effect of 50% or more. Some of the results follow.
What follows are compounds tested against Bcl-2-like protein 10 (Homo sapiens) (UniProt Q9HD36) (assay: TR3 peptide-Bcl-B binding displacers, biochemical primary FP assay, phenotype converters (AID 1240;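 further: 0% = Bcl-B with tracer peptide and DMSO and 100% = tracer peptide lacking Bcl-B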)). Conditions: GST-Bcl-B / FITC-TR3 peptide fluorescence polarization; stronger effect = higher value; compound at 3.75 mg/L.
Sequence of UniProt Q9HD36 (Q9HD36 whole entry, looked up): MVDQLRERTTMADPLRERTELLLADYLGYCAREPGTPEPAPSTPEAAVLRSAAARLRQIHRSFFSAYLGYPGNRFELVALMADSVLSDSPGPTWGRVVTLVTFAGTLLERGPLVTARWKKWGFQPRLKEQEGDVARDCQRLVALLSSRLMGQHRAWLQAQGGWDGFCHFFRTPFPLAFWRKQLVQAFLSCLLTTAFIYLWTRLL

SMILES | displacement
COc1cccc(C(=O)Nc2cc([N+](=O)[O-])ccc2O)c1 | 23.2%
CCCCCC12CCC(O)(CC1)C/C2=N/NS(=O)(=O)c1ccc(C)cc1 | 13.2%
O=[N+]([O-])c1ccc(C2NN=C(Cc3ccccc3)S2)cc1 (configuration not stated) | -6.7%
O=C1/C(=C/c2ccc(Cl)cc2)SC(=S)N1C1CCCCC1 | -7%
O=C1C=C(NCCc2c[nH]c3ccccc23)CC(c2ccccc2)C1 (configuration not stated) | -2.8%
CCOC(=O)C(C#N)C(c1ccc(C)cc1)C1CCOC(C)(CC)C1 (configuration not stated) | -10.4%
COc1ccc(/C=N/N(C)c2cc(C)nc(-c3ccccc3O)n2)cc1OC | 0.3%
Cc1[nH]n(-c2ccccc2)c(=O)c1C(=O)c1ccc([N+](=O)[O-])cc1 | -12.3%
CCN1C(=O)/C(=C2/Oc3ccc4ccccc4c3N2C)OC1=S | 10.8%
O=C1NC(=O)N(c2ccccc2)C(=O)/C1=C\c1ccc(-c2ccc([N+](=O)[O-])cc2Cl)o1 | 11.5%
COc1ccc(/C=C2/SC(=S)N(CC(=O)O)C2=O)cc1Br | 5.1%
C=CCNC(=O)/C(=C\c1ccc2c(c1)OCO2)NC(=O)c1ccco1 | -1%
COc1ccc(N2C(=O)c3ccccc3C2(O)c2ncc[nH]2)cc1 (configuration not stated) | 7.3%
COc1cc([N+](=O)[O-])ccc1NC(=S)NC(=O)/C=C/c1ccccc1 | 12.6%
CC(=O)NC(NC(C)=O)c1ccccc1 | 1.9%
O=C(NCC1CCCO1)c1sc2ccccc2c1Cl (configuration not stated) | 7.2%
O=CN1CCN(c2nc(-c3ccccc3)c3cc(Cl)ccc3n2)CC1 | 113%
Cc1cccc(N2C(=O)NC(=O)/C(=C/c3ccc(-c4ccccc4[N+](=O)[O-])o3)C2=O)c1 | -15.1%
CS(=O)(=O)N(Cc1ccc(C(=O)NCc2ccc(Cl)cc2Cl)cc1)c1ccccc1 | 1.4%
COCCOC(=O)c1c(C)oc2ccc(OCc3cc(C)ccc3C)cc12 | 10.8%
Nn1c(NCc2ccccc2)nc2ccccc21 | -3.8%
Cc1ccc(C(=O)NCc2ccccc2)cc1S(=O)(=O)N1CCOCC1 | -6.6%

SMILES | displacement
Cc1ccc(C)c(S(=O)(=O)Nc2ccc(OC(=O)c3ccc(Cl)cc3)cc2)c1 | 6.9%
CCOC(=O)c1c(NC(=O)CCc2ccccc2)sc2c1CCC2 | 3.4%
O=[N+]([O-])c1ccc(S(=O)(=O)NCCOc2ccccc2Cl)cc1 | 16.1%
CCSc1nc(-c2ccccc2)nc(C(Cl)Cl)n1 | -0.1%
O=C(COc1ccc2ccccc2c1)Nc1cc(Cl)cc(Cl)c1 | -8%
COC(=O)C1=C(C)N=c2s/c(=C\c3cc(OC)c(OC)cc3[N+](=O)[O-])c(=O)n2C1c1ccccc1 (configuration not stated) | 38.4%
COc1ccccc1NC(=O)c1ccccc1C(F)(F)F | -5.7%
CC(C)(C)N1C(=O)NC(=O)C(=Cc2ccc([N+](=O)[O-])s2)C1=O | 8.3%
COc1cc(/C=C2\SC(=S)N(CCCCCCCCCCC(=O)O)C2=O)ccc1O | 5.1%
c1ccc(Oc2cccc(CSc3nnnn3-c3ccccc3)c2)cc1 | 1%
O=C(CSc1ccccc1)Nc1nnc(CSc2ccccc2)s1 | -9.5%
O=C1c2ccccc2-n2c1cc(C=Nc1ccc(Cl)cc1)c2O | 112%
O=C(CCCOc1ccccc1)Nc1ccccc1 | -2.5%
COC(=O)CN(c1cccc(Br)c1)S(C)(=O)=O | 6.3%
COC(=O)c1ccc(NC(=O)CC2SCCNC2=O)cc1 (configuration not stated) | -0.2%
O=C(/C=C/c1ccc(-c2ccc([N+](=O)[O-])cc2)o1)c1cc2ccccc2o1 | 190%
Cc1ccc(S(=O)(=O)N(C)c2ccc(Br)cc2C(=O)c2ccccc2)cc1 | 9%
C=CCOc1ccc(/C=C2\C(=O)NC(=O)N(C)C2=O)cc1Br | -49.3%
COc1cc(NC(=O)c2ccccc2[N+](=O)[O-])ccc1NC(=O)c1cc2ccccc2o1 | -0.3%
COCC(O)CN1CCN(c2ccc([N+](=O)[O-])cc2Cl)CC1 (configuration not stated) | 14.8% and -1.4%
O=C(Cc1cccs1)Nc1cccc2c1C(=O)N(c1ccccc1)C2=O | 0.7%
C=CCN1C(=O)/C(=C\c2ccc(O)c(OCC)c2)C(=O)NC1=S | 9.2%

SMILES | displacement
Cc1ccc(NC(=O)/C(=C/c2ccccc2)c2ccccc2)cc1C | 12.1%
O=Cc1ccccc1OCc1ccc(F)cc1 | -1.8%
CC1=NN(c2ccccc2)C(=O)/C1=C\c1ccc(C)o1 | -16.6%
COc1ccccc1NC(=S)NC(=O)c1ccc(Cl)cc1 | -6%
COC(=O)C1=C(C)N=c2s/c(=C/c3ccc(F)cc3)c(=O)n2C1c1ccc(OC)cc1 (configuration not stated) | 5.7%
CCOc1cc(C(=O)N2CCN(c3ccc([N+](=O)[O-])cc3)CC2)cc(OCC)c1OCC | -3.4%
CCc1ccc(S(=O)(=O)N=Nc2c(O)n(CC)c3ccccc23)cc1 | -5.3%
C=CCn1c(-c2ccccc2)c(NC(=O)c2ccccc2)sc1=Nc1cccc(Cl)c1 | 1.7%
CS(=O)(=O)c1nnnn1-c1cccc2ccccc12 | 7.2%
COc1ccc2oc(=O)c(C(=O)Nc3ccc(C(C)=O)cc3)cc2c1 | 17.6%
CC(C)(C)c1ccc(OCCOc2ccc(/C=N/N3C(=O)CSC3=S)cc2)cc1 | -18.3%
COc1ccc(/C=N\NC(=O)CNc2ccccc2C)cc1 | 0.5%
COCCNC(=O)CN(c1c(C)cccc1C)S(C)(=O)=O | 6.4%
COc1ccc(/C(C)=N/N=C2/NC(=O)C(CC(=O)Nc3ccc(C)cc3)S2)cc1 (configuration not stated) | -27.9%
S=C(Nc1ccc2nc(-c3ccccc3)c(-c3ccccc3)nc2c1)N1CCN(c2ccccn2)CC1 | 10%
CCOc1cc(C(=O)NC2CC2)cc(OCC)c1OCC | -2.5%
COC(=O)c1cccc(NC(=O)c2ccc3c(c2)C(=O)N(C(C)(C)C)C3=O)c1 | -14.8%
O=C(Nc1nc2ccccc2n1CCOc1ccccc1)c1ccccc1F | 25%
Cn1c(=O)n(C)c2cc(C3Nc4ccc5ccccc5c4C4=C3C(=O)CC(C)(C)C4)ccc21 (configuration not stated) | 40.4%
CC1(C)NC(=O)N(CC(O)COc2ccc(Cl)cc2)C1=O (configuration not stated) | -3.3%
NC(=O)c1c(NC(=O)c2ccccc2[N+](=O)[O-])sc2c1CCCCCC2 | 1%
Cc1cc(NS(=O)(=O)c2ccc(NC(=O)c3cccc(Br)c3)cc2)no1 | 9.5%

SMILES | displacement
CCOc1ccc(N2C(=O)/C(=C/c3ccc(-c4cc([N+](=O)[O-])ccc4Cl)o3)C(=O)NC2=S)cc1 | -4.6%
CC(C)NC(=O)C12CC3CC(C1)CC(C(=O)NC(C)C)(C3)C2 | 1.3%
O=C(/C=C/c1ccc(-c2cccc([N+](=O)[O-])c2)o1)Nc1ccc(Cl)cc1 | 4.5%
COc1cc([N+](=O)[O-])ccc1NC(=O)c1ccc(S(=O)(=O)N2CC(C)OC(C)C2)cc1 (configuration not stated) | 9.6%
Cc1ccc(-c2cc(-c3ccncc3)c(C#N)c(N)c2C#N)cc1 | 21.2%
CCOc1ccccc1C(=O)Nc1nc(-c2ccc(Br)cc2)cs1 | 0.6%
CCCCOc1ccc(C(=O)Nc2cccc(-c3nc4cc(C)ccc4o3)c2C)cc1 | -0.3%
O=[N+]([O-])c1cc2c(cc1CC1CC1(Cl)Cl)OCCO2 (configuration not stated) | 23.5%
COc1ccc(OCC(O)COc2ccc(C(=O)O)cc2)cc1 (configuration not stated) | -3.8%
COc1nccnc1NS(=O)(=O)c1ccc(N=Cc2c(C)[nH]n(-c3ccc(C)c(C)c3)c2=O)cc1 | 8.6%
CCSc1nnc(NC(=O)C2C3CCC(C3)C2C(=O)O)s1 (configuration not stated) | -2.4%
COc1ccc(S(=O)(=O)Nc2ccc3ccccc3c2)cc1OC | -9.2%
CC(=O)c1cccc(N=Cc2nc(-c3ccccc3)oc2O)c1 | 3.2%
O=C(NCc1cccnc1)c1ccc(Br)o1 | -0.6%
Cc1cccc(NC(=O)Cc2ccccc2)c1C | 17.7%
O=C(/C=C(\O)c1ccc(F)cc1)C(F)(F)F | 3.5%
COc1cc(/C=N/NC(=O)C(O)(c2ccccc2)c2ccccc2)c(Br)cc1OCC(=O)O | -11.6%
Cc1ccc(/C=N/NC(=O)c2cccc(F)c2)c(O)c1 | -3.8%
CCOc1cccc(-c2cc(C(=O)NCCCN3CCOCC3)c3ccccc3n2)c1 | -4.5%
Cc1cc(OCCN2CCCCC2)cc(C)c1Cl | 9%
COc1ccc(C2Nc3ccccc3C(=O)N2Cc2ccccc2)cc1COc1ccc([N+](=O)[O-])cc1 (configuration not stated) | 15.4%
O=C(O)CCCc1nc2ccccc2[nH]1 | 9.2%

SMILES | displacement
O=C(COc1ccccc1[N+](=O)[O-])Nc1cccc(NC(=O)c2ccc(Cl)cc2Cl)c1 | -11.3%
CC(=O)Nc1ccc(S(=O)(=O)Nc2cc(C)ccc2C)cc1 | 6.3%
Cc1c(NC(=O)c2cccc(I)c2)cccc1[N+](=O)[O-] | -7.8%
COc1ccc(CCNC(=O)CSCC(=O)Nc2ccccc2)cc1OC | -13.8%
Nc1ccc2nc(SCc3nc4ccccc4[nH]3)sc2c1 | -11.3%
Cc1ccc(OCC(=O)Nc2ccc(I)cc2Cl)cc1C | 10.2%
COc1ccc(CC(=O)Nc2cc(C)cc(C)c2)cc1OC | 7.8%
Cc1ccc(N2C(=O)C(=O)/C(=C(/O)c3ccccc3)C2c2ccc(O)cc2)cc1Cl (configuration not stated) | -3.5%
O=C(Nc1ccccc1)C1C(c2ccccc2)C1(Cl)Cl (configuration not stated) | 2.7%
O=C1CCC(=O)N1CNc1ccc(F)cc1 | 12.6%
O=C(NC(=S)Nc1ccc2oc(-c3ccc(Cl)c(Cl)c3)nc2c1)c1ccccc1 | 20%
CS(=O)(=O)c1ccc2nc(NC(=O)c3cccc(Br)c3)sc2c1 | -13.8%
O=C(CN(c1cccc(Br)c1)S(=O)(=O)c1ccccc1)Nc1cccc(Cl)c1 | -0.2%
O=C(c1ccc(Cl)cc1)N1CCN(c2ccc([N+](=O)[O-])c(Sc3cccc4cccnc34)c2)CC1 | 14.1%
O=C(CN1C(=O)c2ccccc2C1=O)NCc1ccc(C(=O)O)cc1 | -7.3%
COc1cccc(N2C(=O)/C(=C/c3ccccc3[N+](=O)[O-])SC2=S)c1 | -2.3%
COc1ccc(CCN2C(=O)/C(=C3/C(=O)N(C)c4ccccc43)SC2=S)cc1OC | -3.1%
Cc1ccc(-c2nc3ccc(Cl)cc3o2)cc1NC(=O)c1ccccc1F | -6.4%
COc1ccc(Nc2nc(-c3ccc4ccccc4c3)cs2)cc1 | -6.2%

From PubChem BioAssay AID1240 (Sanford-Burnham Center for Chemical Genomics, 2008)
